# PubChem BioAssay AID2675 (National Center for Advancing Translational Sciences (NCATS), 2010)
# Among all 280,000 compounds or so, about 100 (0.036%) were called active. Inconclusive results, whose numbers are uncertain, are shown with a selection of clear calls. Calls come from the whole dose curve; as a rule, active = well fitted inhibition curve with a large enough effect in the signal ratio, with a control signal flat (not every such curve was filed as active); inconclusive = small, poorly fitted or top-dose-only effect, or effect the other way, or a change in a side signal; inactive = no such curve, though single readings can be large or run the other way; the % refers to the signal ratio. Where the call is inconclusive, the potency comes from a doubtful curve fit. A note “side channel” means that the fit belongs to a control or component signal, not to the main read-out.
# Target: Muscleblind-like protein 1 (Homo sapiens) (UniProt Q9NR56)
# UniProt Q9NR56, sequence (Q9NR56 whole entry, looked up): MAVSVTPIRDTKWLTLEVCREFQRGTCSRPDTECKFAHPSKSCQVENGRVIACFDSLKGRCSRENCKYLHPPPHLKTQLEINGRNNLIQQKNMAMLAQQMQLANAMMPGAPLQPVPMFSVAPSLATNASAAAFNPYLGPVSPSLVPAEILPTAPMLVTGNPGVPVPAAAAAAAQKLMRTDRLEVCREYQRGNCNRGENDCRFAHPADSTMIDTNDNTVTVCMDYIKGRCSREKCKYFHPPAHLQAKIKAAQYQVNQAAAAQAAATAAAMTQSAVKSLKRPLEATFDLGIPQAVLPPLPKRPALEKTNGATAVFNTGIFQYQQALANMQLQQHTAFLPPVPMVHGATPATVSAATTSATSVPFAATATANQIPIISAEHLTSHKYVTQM
# Assay: qHTS Assay for Inhibitors of MBNL1-poly(CUG) RNA binding
# Conditions: TR-FRET MBNL1-His/biotin-(CUG)12 binding, 665/545 ratio; series mostly up to 57.5 µM
# Summary of the method: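 Ratiometric TR-FRET (665 over 545 nm, excitation 340 nm) tracks disruption of MBNL1-His/biotin-(CUG)12 complex after 60 min at room temperature, with compounds at 92 nM to 58 uM final.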
# Potency is the fitted concentration of half-maximal effect; tags give direction and shape of the fitted curve or compound fluorescence and quenching.
row,SMILES,Potency
1,CCN(CC)S(=O)(=O)c1cccc(C(=O)Oc2cccc(NC(=O)c3cccs3)c2)c1,inactive
2,O=C(C1CCCN(S(=O)(=O)c2cccc3nsnc23)C1)N1CCc2ccccc2C1 (centres undefined),"inconclusive: 10 µM [quencher, side channel, partial curve]"
3,COCc1cc(C)nc(OCC(=O)N/N=C/c2cccc(OC)c2)c1C#N,inactive
4,C/C(=N\NC(=O)c1ccccc1O)C1C(=O)c2ccccc2C1=O,"inconclusive: 35.5 µM [quencher, side channel, single point]"
5,Cc1cc(-c2ccccc2)nc(SCC(=O)c2cccc([N+](=O)[O-])c2)n1,"inconclusive: 20 µM [quencher, side channel, single point]"
6,COc1cccc(-c2nnc(NC(=O)c3ccc(Cl)s3)o2)c1,inactive
7,CC(OC(=O)CC(NC(=O)c1ccccc1Cl)c1ccccc1)C(=O)Nc1cccc(Cl)c1Cl (centres undefined),"inconclusive: 7.08 µM [quencher, side channel, single point]"
8,Cc1ccc(C)c(NS(=O)(=O)c2c(C)ccc3nsnc23)c1,"inconclusive: 11.2 µM [quencher, side channel, partial curve]"
9,COc1ccccc1-n1c(C)nnc1SCC(=O)Nc1cccc(C(C)=O)c1,"inconclusive: 3.98 µM [quencher, side channel, single point]"
10,CCN(C(=O)C1CCN(S(=O)(=O)c2cccc3nonc23)CC1)c1ccccc1,"inconclusive: 25.1 µM [quencher, side channel, partial curve]"
11,Cc1noc(NS(=O)(=O)c2ccc(NC(=O)c3nn(-c4ccccc4)ccc3=O)cc2)c1C,"inconclusive: 25.1 µM [quencher, single point]"
12,COc1ccc(C(=O)N/C(=C\c2cn(C)c3ccccc23)C(=O)NCCCn2ccnc2)cc1OC,"inconclusive: 25.1 µM [quencher, side channel, partial curve]"
13,Oc1cnc2ccccc2c1CN1CCOCC1,inactive
14,COc1cc(OC)c(NC(=O)CC(C)=O)cc1Cl,"inconclusive: 5.62 µM [inhibitor, full curve, poor fit]"
15,COc1ccc(C(=O)N2CCCCC2)cc1S(=O)(=O)Nc1cccc(C(=O)O)c1,"inconclusive: 2.82 µM [quencher, side channel, full curve, poor fit]"
16,CNC(=S)N/N=C/c1ccc(-c2ccc(C(=O)O)cc2)o1,"inconclusive: 22.4 µM [quencher, partial curve]"
17,Cc1cc(/C=C2\SC(=O)N(C)C2=O)c(C)n1-c1cccc(C(=O)O)c1,"inconclusive: 17.8 µM [quencher, side channel, single point]"
18,N#C/C(=C/c1cccn1-c1cccc(C(=O)O)c1)c1ccc(Cl)cc1,inactive
19,O=C(Cn1nnc2ccccc21)N/N=C\C=C\c1ccccc1,"inconclusive: 15.8 µM [quencher, side channel, single point]"
20,CC(=O)N1CCc2c(sc(NC(=O)C3CC3)c2-c2nc3ccccc3s2)C1,"inconclusive: 1 µM [quencher, side channel, single point]"

row,SMILES,Potency
1,COc1ccc(CN2C3CCC2CC(NC(=O)c2cccc(F)c2)C3)cc1 (centres undefined),inactive
2,COc1cccc(-c2nc(-c3cccs3)no2)c1,inactive
3,Cc1ccc2nc(-c3ccc(SCC(=O)N4CCc5ccccc54)nc3)[nH]c2c1,"inconclusive: 4.47 µM [fluorescent, side channel, partial curve]"
4,CCOC(=O)C1(CCOc2ccccc2)CCN(Cc2cccc3nonc23)CC1,inactive
5,COC1=CCC2([N+](=O)[O-])CN(CCO)CC1([N+](=O)[O-])C2 (centres undefined),"inconclusive: 0.0398 µM [fluorescent, side channel, full curve]"
6,COc1ccc(S(=O)(=O)Nc2c(F)cccc2F)cc1,inactive
7,C/C(=N/OCO/N=C(/C)c1ccc(F)cc1)c1ccc(F)cc1,"inconclusive: 0.282 µM [fluorescent, side channel, full curve]"
8,COCC(C)N=C1NN=C(c2c[nH]c3ccccc23)CS1 (centres undefined),"inconclusive: 35.5 µM [quencher, side channel, single point]"
9,O=C(NCCc1ccccc1)C1CCN(S(=O)(=O)c2cccc3nsnc23)CC1,"inconclusive: 0.126 µM [quencher, side channel, full curve, poor fit]"
10,COC(=O)c1sc(NC(=O)c2ccc(Cn3cc(Cl)cn3)o2)c(C#N)c1C,inactive
11,O=C(O)c1cc(-c2ccc3ccccc3n2)nc2ccccc12,"inconclusive: 15.8 µM [quencher, side channel, partial curve]"
12,O=C(CCNc1cccc(F)c1)c1cccc([N+](=O)[O-])c1,"inconclusive: 11.2 µM [quencher, partial curve]"
13,CCn1c2ccccc2c2nnc(SCC(=O)NCCOC)nc21,"inconclusive: 31.6 µM [quencher, side channel, single point]"
14,Fc1cnc(N2CCc3ccccc32)nc1N1CCc2ccccc21,"inconclusive: 0.447 µM [fluorescent, side channel, single point]"
15,COc1cccc2cc(C(=O)OC3CCN(C)CC3)c(=O)oc12,"inconclusive: 14.1 µM [activator, partial curve, poor fit]"
16,CCc1nc(C)cn1S(=O)(=O)c1ccc([N+](=O)[O-])cc1,"inconclusive: 17.8 µM [quencher, partial curve]"
17,COCCN1C(=O)c2ccc(C(=O)NCc3ccco3)cc2C1=O,"inconclusive: 11.2 µM [quencher, side channel, partial curve]"
18,O=C(CSc1ncn[nH]1)Nc1c(Br)cc([N+](=O)[O-])cc1Br,"inconclusive: 14.1 µM [quencher, side channel, partial curve]"
19,N#Cc1ccc(Oc2cccc3cccnc23)c([N+](=O)[O-])c1,"inconclusive: 15.8 µM [quencher, side channel, partial curve]"
